The results in this text go back to paper PMC4336329 (PLoS ONE, 2015).

The whole screen tested about 310,000 compounds, of which about 2,200 (0.71%) showed an effect of 50% or more. The effect is printed as a negative number. The list shows a part of the results.

Chain of human ether-à-go-go-related gene (hERG) potassium channel (Q12809 whole entry, looked up): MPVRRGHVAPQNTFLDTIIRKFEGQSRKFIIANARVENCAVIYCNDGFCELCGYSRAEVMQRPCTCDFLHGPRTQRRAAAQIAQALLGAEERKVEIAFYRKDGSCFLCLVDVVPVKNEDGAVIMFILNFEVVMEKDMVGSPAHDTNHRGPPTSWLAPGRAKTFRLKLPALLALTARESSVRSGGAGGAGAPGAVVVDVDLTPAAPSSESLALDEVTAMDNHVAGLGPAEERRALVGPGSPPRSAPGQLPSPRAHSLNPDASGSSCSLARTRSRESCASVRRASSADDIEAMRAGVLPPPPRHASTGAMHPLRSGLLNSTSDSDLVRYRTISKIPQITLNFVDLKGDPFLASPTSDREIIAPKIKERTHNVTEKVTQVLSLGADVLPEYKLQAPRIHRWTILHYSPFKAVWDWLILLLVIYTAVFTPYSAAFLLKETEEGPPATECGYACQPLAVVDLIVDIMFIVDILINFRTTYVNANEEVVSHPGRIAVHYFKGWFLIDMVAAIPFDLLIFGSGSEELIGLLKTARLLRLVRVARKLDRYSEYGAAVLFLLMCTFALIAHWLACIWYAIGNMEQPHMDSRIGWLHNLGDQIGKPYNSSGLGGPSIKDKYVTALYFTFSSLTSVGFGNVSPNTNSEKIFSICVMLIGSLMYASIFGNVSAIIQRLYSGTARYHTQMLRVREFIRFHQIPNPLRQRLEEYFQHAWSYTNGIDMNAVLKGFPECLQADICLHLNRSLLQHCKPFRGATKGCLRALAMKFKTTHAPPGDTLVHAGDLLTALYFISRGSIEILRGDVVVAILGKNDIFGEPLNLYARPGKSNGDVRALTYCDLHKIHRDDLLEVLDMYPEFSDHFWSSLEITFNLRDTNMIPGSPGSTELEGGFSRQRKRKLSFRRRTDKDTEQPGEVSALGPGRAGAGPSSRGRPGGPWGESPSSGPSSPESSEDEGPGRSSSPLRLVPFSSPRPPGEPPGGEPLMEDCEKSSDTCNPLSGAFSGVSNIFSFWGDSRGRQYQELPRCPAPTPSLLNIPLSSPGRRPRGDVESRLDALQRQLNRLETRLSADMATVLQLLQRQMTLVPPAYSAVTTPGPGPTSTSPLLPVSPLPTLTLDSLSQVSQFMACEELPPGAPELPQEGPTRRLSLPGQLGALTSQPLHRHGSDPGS

This assay has as its target human ether-à-go-go-related gene (hERG) potassium channel (human, UniProt Q12809). The assay is described as follows: primary screen, population patch clamp on CHO cells stably expressing hERG.
Regarding `Cn1cccc1C1C(C#N)=C(N)OC2=C1C(=O)CCC2` (centres unmarked), the “hERG current change (%, negative = inhibition) at 1uM” value was 15.3%. For `COCCNC(=O)c1cn(C(C)c2ccccc2F)nn1` (centres unmarked), the “hERG current change (%, negative = inhibition) at 1uM” value is 6.34%.

Consider `CC1CN(C(=O)c2cc(-c3ccncc3)nc3ccccc23)CC(C)O1` (centres unmarked), for which the “hERG current change (%, negative = inhibition) at 1uM” value was -0.109%. As to `Cc1cc(=O)[nH]c(SCC(=O)NCC2CCCO2)n1` (centres unmarked), the “hERG current change (%, negative = inhibition) at 1uM” value is 8.68%. For the compound `O=C1OC(OC(=O)c2ccccc2Br)C(N2CCOCC2)=C1Cl` (centres unmarked), the “hERG current change (%, negative = inhibition) at 1uM” value was found to be 8.79%. The same measure for `CCc1ccccc1OCC(=O)OCC(=O)N1CC(=O)Nc2ccccc21`: 11%; for `COc1ccc(CC(=O)Nc2nncs2)cc1OC`: 12.7%; for `O=C(NC(Cc1ccccc1)C(=O)O)/C(=C\c1ccc(Br)cc1)NC(=O)c1ccc(Br)o1` (centres unmarked): 5.37%.

Turning to `CCN(CC)c1ccc(NC(=O)CN2CCN(S(=O)(=O)c3cc(Cl)ccc3OC)CC2)cc1`, the “hERG current change (%, negative = inhibition) at 1uM” value is reported as 13%.

Take `COc1ccc(NC(=O)COC(=O)CCc2ccccc2)c(OC)c1`: the “hERG current change (%, negative = inhibition) at 1uM” value was determined as 17.2%. The same measure for `COc1nc(NCc2cccnc2)nc(NC2CCCCC2)n1`: 4.6%; for `CCOc1ccc(NC(=O)c2cccc(NC(=O)c3ccccc3)c2)cc1`: 7.35%; for `O=C(NCC(c1cccnc1)N1CCN(c2ccccc2)CC1)OCc1ccccc1` (centres unmarked): -6.26%. To `Cc1cc(C(=O)CCC(=O)N2CCN(S(=O)(=O)c3cccs3)CC2)c(C)s1` belongs 7.51%; to `CC1CC2(CCCCC2)Nc2c1ccc1ccccc21.Cl` (centres unmarked), 15.2%. The same measure for `COCCn1c(SCC(=O)NC2CCCCC2)nc2c(c1=O)SCC2`: 11.5%; for `CC(=O)ONC(=Nc1ccccc1)c1nonc1N`: 14.7%. In the case of `CN(Cc1ccccc1)C(=O)C1CCC(CNS(=O)(=O)c2cccc3cccnc23)CC1` (centres unmarked), the “hERG current change (%, negative = inhibition) at 1uM” value was -5.07%. As for `Cc1ccc(S(=O)(=O)N(CCC(=O)O)Cc2ccc(Cl)cc2)cc1`, the “hERG current change (%, negative = inhibition) at 1uM” value stood at 7.59%. The same measure for `COc1ccc(-c2c(C)oc3c(CN4CCN(CCO)CC4)c(O)ccc3c2=O)cc1OC`: 17.9%; for `COc1cc(C2Nc3ccc4ncccc4c3C3=C2C(=O)CCC3)cc(OC)c1OC` (centres unmarked): -5.98%; for `Nc1c(NCc2ccccc2)c2ccccc2oc1=O`: 7.13%. With `O=C(OCCN1C(=O)c2cccc3c(N4CCOCC4)ccc(c23)C1=O)c1ccccc1Cl`, the “hERG current change (%, negative = inhibition) at 1uM” value was found to be 9.19%. As to `Cc1cc(C(F)(F)F)nc(SCC(=O)Nc2nccs2)n1`, the “hERG current change (%, negative = inhibition) at 1uM” value was determined as 10.9%.

`Cc1ccc(C)c(NC2CCCCC2NS(=O)(=O)c2ccccc2)c1` (centres unmarked): the “hERG current change (%, negative = inhibition) at 1uM” value is recorded as 17.3%.

Regarding `Cc1onc(-c2ccccc2)c1C(=O)Nc1c(C)n(C)n(-c2ccccc2)c1=O`, the “hERG current change (%, negative = inhibition) at 1uM” value is recorded as 2.98%. The same measure for `Cc1cc(C)cc(Oc2ccc(N)cc2)c1`: 3.57%. As for `Nc1ccc(CCNc2ncnc3c2ncn3[C@@H]2O[C@H](CO)[C@@H](O)[C@H]2O)cc1`, the “hERG current change (%, negative = inhibition) at 1uM” value came to 9.75%. Regarding `O=P(c1ccccc1)(c1ccccc1)c1nc(-c2ccccc2)oc1N1CCOCC1`, the “hERG current change (%, negative = inhibition) at 1uM” value came out at 6.49%. To `CCc1nnc(NC(=O)CCC2CCCCC2)s1` belongs 4.6%; to `CN(C)S(=O)(=O)c1cccc(NC(=O)c2cc3c(cc2Cl)N2CCCCCC2=NS3(=O)=O)c1`, 13.4%. For `Cc1cccc(OC(=O)c2ccc3nccnc3c2)c1`, the “hERG current change (%, negative = inhibition) at 1uM” value came out at 9.6%. The same measure for `O=C1CC(=Nc2ccccc2)NN1c1ccccc1`: 19%; for `O=C(/C=C/c1ccc(F)cc1)Nc1ccc(S(=O)(=O)N2CCOCC2)cc1`: 13.5%; for `Cc1noc(NS(=O)(=O)c2ccc(N/C=C/C(=O)c3ccc(F)cc3)cc2)c1C`: 2.94%. The same measure for `COC(=O)C1=C(C)N(c2ccc(OC)cc2)C(C)=C(C(=O)OC)C1c1ccccc1`: 13.2%; for `CC(C(=O)N1c2ccccc2Sc2ccccc21)n1nnc(-c2cccs2)n1` (centres unmarked): 5.49%.

Turning to `Cc1ccc(-n2ncc(-c3nnc(SCC(=O)NC4CCCC4)o3)c2N)cc1C`, the “hERG current change (%, negative = inhibition) at 1uM” value was -3.33%. To `O=C(c1ccco1)N1CCN(c2ncnc3scc(-c4ccccc4)c23)CC1` belongs -3.06%. For `Cc1ccc(NC(=O)COC(=O)Cn2cnc3ccccc32)c([N+](=O)[O-])c1`, the “hERG current change (%, negative = inhibition) at 1uM” value came out at 6.89%. The same measure for `Cc1ccc(Cl)cc1NC(=S)N(CCCN1CCN(C)CC1)Cc1ccco1`: -2.97%; for `CCOC(=O)C(=O)c1c(-c2ccc(C)cc2)nc2ccccn12`: 7.32%. The same measure for `CCc1noc(C)c1C(=O)OCC(=O)NCc1ccccc1OC`: 12.8%. The same measure for `Cc1csc(NC(=O)C(C)Oc2ccc(Cl)cc2C)n1` (centres unmarked): 14.2%; for `O=S(=O)(Cc1ccccc1Cl)NCc1ccccc1`: 12.9%.

`COc1ccc2cc(C(=O)N3CCN(c4ccccc4F)CC3)[nH]c2c1`: the “hERG current change (%, negative = inhibition) at 1uM” value is listed as 11.6%.

As to `Cn1c(=O)c([N+](=O)[O-])c(NCCc2ccccc2)c2ccccc21`, the “hERG current change (%, negative = inhibition) at 1uM” value amounted to 2.52%. With `CSCCC(NC(=O)COc1ccccc1)C(=O)N1CCN(c2ccccc2F)CC1` (centres unmarked), the “hERG current change (%, negative = inhibition) at 1uM” value is recorded as -1.49%.

For `CCc1cccc(C)c1NC(=O)COC(=O)CNS(=O)(=O)/C=C/c1ccccc1`, the “hERG current change (%, negative = inhibition) at 1uM” value was found to be 19.1%. To `Cc1cc(NC(=O)CCC(=O)N(c2cccc(F)c2)C(C(=O)NC2CCCC2)c2ccccc2)no1` (centres unmarked) belongs 18.1%. To `Cc1ccc(S(=O)(=O)N[C@@H](Cc2ccccc2)C(=O)N2CCC(C(=O)N[C@@H](CC(C)C)C(=O)O)CC2)cc1` belongs 17.4%; to `COc1ccc(NC(=O)c2sc(NC(=O)C3CC3)nc2C)cc1`, 2.78%; to `c1cc2c3c(cccc3c1)NC1(CCCCC1)N2`, 13.4%. In the case of `CCOC(=O)C1CC(=O)c2cc(OC)c(OC)cc2C1` (centres unmarked), the “hERG current change (%, negative = inhibition) at 1uM” value came to 7.84%. To `Cn1cccc1C(=O)NC(=O)COC(=O)CC12CC3CC(CC(C3)C1)C2` belongs 10.4%. As for `CC1C/C(=N\NC(N)=S)c2cc(Cl)ccc2S1` (centres unmarked), the “hERG current change (%, negative = inhibition) at 1uM” value is on record as 12.6%.
